Measurements from the RNAGym collection of RNA variant scans (doi:10.7554/elife.90254).
The source gives no read counts; variants with many changes may rest on few reads.

B1: LINE1-mini (parent)
chain: GGCAGAGCUCAACACAGCGUGGCAAAGUGGCUGUGGCUAGACUGCC

Variants of: B1
Test: self-cleavage, relative activity (ratio to wild type); higher = more cleavage; in vitro, sequencing; the parent is a self-cleaving ribozyme

Variant	self-cleavage
GGCAGAGCUCAACACAGCAUGGCAAAGUGGCUGUGGCUAGACUUCG [G19A G44U C46G]	0.56
GGCAGAGCUCAACACAGCAUGGUAAAGUGGCUGUGGCUACACGGCC [G19A C23U G40C U43G]	0.02
GGCAGAGCUCAACACAGCAUGGCAAAGUGUCUGUGGCUAGACUUCC [G19A G30U G44U]	0.69
GGCAGAGCUCAACACAGCAUGGCAAAGUCGCUGUGGCUUGACUGCC [G19A G29C A39U]	1.25
GGCAGAGCUCAACACAGCAUGGCUAAGUGGCUGUGGCUACACUGCC [G19A A24U G40C]	0.04
GGCAGAGCUCAACACAGCCUGGCAACGUGGCUGUGGAUAGACUUCC [G19C A26C C37A G44U]	0.07
GGCAGAGCUCAACACAGCAUGCCAAAGUCGCUGUGGCUAGACUGCC [G19A G22C G29C]	0.35
GGCAGAGCUCAACACAGCAGGGCAAAGUGGCUGUGGCUAGACUGCA [G19A U20G C46A]	1.59
GGCAGAGCUCAACACAGCAUGGUAAAACGGCUGUGGCUAGACUACA [G19A C23U G27A U28C G44A C46A]	0.1
GGCAGAGCUCAACACAGCCUUGAAAAGUGGCUGUGGCUAGACUGCC [G19C G21U C23A]	0.25
GGCAGAGCUCAACACAGUGUGUCAAAGUGGCCGUUGCUAGACUGCC [C18U G22U U32C G35U]	0.04
GGCAGAGCUCAACACAGUGUGGCAAAGUAGCUGUGGCUAGACUCCC [C18U G29A G44C]	0.23
GGCAGAGCUCAACACAGCAUGGCAAAGUGGCUAUGGGUAGACUGCC [G19A G33A C37G]	0.01
GGCAGAGCUCAACACAGUGUGGCAAAAUGUCUGUGGCUAGACUGCC [C18U G27A G30U]	1.06
GGCAGAGCUCAACACAGCCUGGCAAAGUGGCUGUGGCUAGUCUGGC [G19C A41U C45G]	0.54
GGCAGAGCUCAACACAGUGUGGCAAAGUGGCCGUGGUUAGACUGCC [C18U U32C C37U]	0.04
GGCAGAGCUCAACACAGCAUGGCAAUGUGGCUGUGGCGAGACUGCC [G19A A26U U38G]	0.02
GGCAGAGCUCAACACAGCCUGGCCAACUGGCUGUGGCUAGAAUGCC [G19C A24C G27C C42A]	0.02
GGCAGAGCUCAACACAGUGUGGCAAAGUGGCUGCGCCUAGACUGCC [C18U U34C G36C]	0.04

Variant	self-cleavage
GGCAGAGCUCAACACAGUGUGGCAAACUGUCUGUGGCUAGACUGCC [C18U G27C G30U]	0.62
GGCAGAGCUCAACACAGCCUGGCCAAGUGGCAGUGGCUAGACUGCC [G19C A24C U32A]	0.08
GGCAGAGCUCAACACAGUGUGUCAAAGUGGCUGUGACUAGAGUGCC [C18U G22U G36A C42G]	0.02
GGCAGAGCUCAACACAGUGUGUCAAAUUGUCUGUGGAUAGACUGCC [C18U G22U G27U G30U C37A]	0.14
GGCAGAGCUCAACACAGUGUGGCAAAGUGGCUGUGGCUAGACGGAC [C18U U43G C45A]	0.05
GGCAGAGCUCAACACAGCAUGGCAACGCGACUGUGGCUAGACUGCC [G19A A26C U28C G30A]	0.31
GGCAGAGCUCAACACAGCCUGGCAAAGUGGCUGUGGCUAGAGGGCC [G19C C42G U43G]	0
GGCAGAGCUCAACACAGUGUGGCAAAGUGGCUUUGGCUAAACUGCC [C18U G33U G40A]	0
GGCAGAGCUCAACACAGUGUGGCAAAGUGGCUGUGGCUAGACAGAC [C18U U43A C45A]	0
GGCAGAGCUCAACACAGCCUGGCCAAGGAGCUGUGGCUAGACAGCC [G19C A24C U28G G29A U43A]	0.14
GGCAGAGCUCAACACAGCAUCGCAAAGUCGCUGUGGAUACAUUGUC [G19A G21C G29C C37A G40C C42U C45U]	0.03
GGCAGAGCUCAACACAGCAUGGUAAAGUGGCUGUGGCUAGACUGCA [G19A C23U C46A]	0.45
GGCAGAGCUCAACACAGUGUGGCAAAGCGGCGGUGGCAAGACUUCC [C18U U28C U32G U38A G44U]	0.03
GGCAGAGCUCAACACAGCAUGGCAAAUUGGCUGUAGCUAGAGUGCC [G19A G27U G35A C42G]	0.04
GGCAGAGCUCAACACAGCAUUGCAAAGUGGCUGUGGCUAGACUGCG [G19A G21U C46G]	0.87
GGCAGAGCUCAACACAGCAUGCCAAAGUGGCUGUGGCGAGACUGCC [G19A G22C U38G]	0.02
GGCAGAGCUCAACACAGCCUGGCAAAGUGGCUGUGGUUAGACUCCC [G19C C37U G44C]	0.02
GGCAGAGCUCAACACAGCCUCGCCAAGUGGCUGUGGCUAGACUGCC [G19C G21C A24C]	0.19
GGCAGAGCUCAACACAGCCUGGCAAGGUGGCUGUUGCUAGACUGCC [G19C A26G G35U]	0.02

Variant	self-cleavage
GGCAGAGCUCAACACAGUGAUGCAAAGUGGGUGUGGCUAGACUGCC [C18U U20A G21U C31G]	0.1
GGCAGAGCUCAACACAGCAUGGCAAAGUGUCGGUGGCUAGACUGCG [G19A G30U U32G C46G]	0.13
GGCAGAGCUCAACACAGUGUGGCAAAGUGGCUGUGGCCAGACUCCC [C18U U38C G44C]	0.11
GGCAGAGCUCAACACAGCCUGUCAAACUGGCUGUGGCUAGACUGAC [G19C G22U G27C C45A]	0.43
GGCAGAGCUCAACACAGCAUGGCGAAGUGGCUGUGGCUACACUGCC [G19A A24G G40C]	0.05
GGCAGAGCUCAACACAGCAUGGCGAAGUGGCUGUAGCUAGACUGCC [G19A A24G G35A]	0.1
GGCAGAGCUCAACACAGUGUGGCAAAAAGGUUGUUGCUAGACUACC [C18U G27A U28A C31U G35U G44A]	0.01
GGCAGAGCUCAACACAGCCUGGCAAAAUGGCUGUGUCUAGACUGCC [G19C G27A G36U]	0.01
GGCAGAGCUCAACACAGUGUGGCAAAAUGGCUGUGGUUAGACUGCC [C18U G27A C37U]	0.04
GGCAGAGCUCAACACAGUGAGACAAAGUGACUGUGGCUAGACUGCG [C18U U20A G22A G30A C46G]	0.44
GGCAGAGCUCAACACAGCCUUUCAAAGUGGCUGUGGUUAGACUCCC [G19C G21U G22U C37U G44C]	0.02
GGCAGAGCUCAACACAGCCUGUCAAAGUCGUUGUGGCUAUACUGCC [G19C G22U G29C C31U G40U]	0.04
GGCAGAGCUCAACACAGUGGGGCAAAGUGGCUGUGGCUAGACUGCU [C18U U20G C46U]	0.02
GGCAGAGCUCAACACAGUGUGGCAAAGCGGCUGUGGUUAGACUGCC [C18U U28C C37U]	0.01
GGCAGAGCUCAACACAGCAUGGCAAAGUGGCUGUGGCUGGACAUCC [G19A A39G U43A G44U]	0.07
GGCAGAGCUCAACACAGUGUGGCAAAGUGGCUGUUGCUAGACAGCC [C18U G35U U43A]	0.03
GGCAGAGCUCAACACAGCAUGGCAAAGUGUCUGUGGAUGGACUGCC [G19A G30U C37A A39G]	0.06
GGCAGAGCUCAACACAGCAUUGCAAAGAGGCUGUGGCUAGACUGCC [G19A G21U U28A]	0.79
